This note sets out measurements from PubChem BioAssay AID1346428 (National Center for Advancing Translational Sciences (NCATS), 2018).

Several values for one entry are separate records, joined by “and”; a condition that tells them apart may be missing. Equal entries are not always repeated. The campaign covered roughly 48,000 compounds. About 1,200 (2.5%) were called active. Not shown: some 2% with an inconclusive outcome.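 Rule for the calls: active = activation of at least 60% and not above a set upper limit (about 1 call in 100 departs from these limits); inconclusive = activation of 40% to 60%, or above that upper limit; inactive = activation under 40%.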 The list shows a part of the results.

Chain of UniProt O75388 (O75388 whole entry, looked up, the tested form may be a part): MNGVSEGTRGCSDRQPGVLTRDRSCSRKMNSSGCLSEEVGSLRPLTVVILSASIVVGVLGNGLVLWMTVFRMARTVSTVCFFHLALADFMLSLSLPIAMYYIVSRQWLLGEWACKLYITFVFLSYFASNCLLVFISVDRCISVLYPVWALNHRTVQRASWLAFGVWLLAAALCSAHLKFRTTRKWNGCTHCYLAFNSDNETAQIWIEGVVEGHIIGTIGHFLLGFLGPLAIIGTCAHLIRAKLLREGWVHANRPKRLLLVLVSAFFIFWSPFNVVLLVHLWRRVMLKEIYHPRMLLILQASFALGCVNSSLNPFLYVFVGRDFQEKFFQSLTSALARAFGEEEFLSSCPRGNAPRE

The target of this test is Probable G-protein coupled receptor 32 (Homo sapiens) (UniProt O75388). As to the kind of experiment: qHTS for Agonists of Human Resolvin D1 Receptor DRV1. Note: 0% is about no effect. As to conditions: CHO-K1 GPR32 beta-arrestin PathHunter luminescence, 90 min; at 76.9 µM; active compounds read high; zero percent set by DMSO-only wells. The method in brief:
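Agonism was scored by beta-Gal fragment complementation (chemiluminescent read, 1 h detection at ambient temperature) reporting beta-arrestin binding to GPR32 in engineered CHO-K1 cells. Compound treatment lasted 90 min at 37 C, normalized to a DMSO basal control.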
(In general: In qHTS, concentration-response curves come from the screen itself.)
Regarding `CCOC(=O)c1cc(OC(=O)c2cc(OC)cc(OC)c2)n(-c2ccccc2)n1`, the activation was inactive: 10.9%.
The same measure for `CC1=C(C(=O)OC2CCCCCC2)C(c2ccc(Cl)cc2Cl)CC(=O)N1` (centres undefined): inactive: 7.39%; for `CC1Cc2cc(S(=O)(=O)NCc3ccccc3)ccc2N1C(=O)C1CCC1` (centres undefined): inactive: 32%; for `CCOC(=O)c1ccc(NC(=O)CSc2ncc(S(=O)(=O)c3ccc(C)c(Cl)c3)c(=O)[nH]2)cc1`: inactive: 35.4%.
With `CN(C)c1ccc(NC(=O)Cn2cc(S(=O)(=O)Cc3ccccc3Cl)c3ccccc32)cc1` the figure was inactive: -0.775%; with `COc1ccc(CCNC(=O)CCCCn2c(=O)c3ccccc3n(Cc3ccccc3)c2=O)cc1OC`, inactive: -22.8%; with `Fc1ccccc1N1CCN(c2ncnc3c2nc2n3CCCC2)CC1`, inactive: 36.6%.
With `CCOCCc1nn2c(=O)cc(COC(=O)c3ccccc3NC(=O)c3ccc(C)cc3)nc2s1` the figure was inactive: -11.9%; with `CCOc1ccc(NC(=O)Cn2cc(C(=O)c3ccc(C)cc3)c(=O)c3cc4c(cc32)OCO4)cc1`, inactive: 6.13%; with `CCc1ccc(CN(Cc2ccco2)C(=O)c2cc(-c3ccc(C)c(F)c3)on2)cc1`, inactive: -15.3%.
In the case of `Nc1cc(C(Cl)=C(Cl)Cl)c(S(N)(=O)=O)cc1S(N)(=O)=O`, the activation was inactive: 2.54%.
The same measure for `CCCCN(C)c1nnc(NC(=O)Nc2ccc(Br)c(C)c2)s1`: inactive: 0.28%; for `CCn1cc2nc(SCC(=O)Nc3ccc(OC)cc3OC)n(Cc3ccc(Cl)cc3)c(=O)c2n1`: inactive: -11.4%; for `Cc1ccc2nc3c(c(Nc4ccc(C)c(C)c4)c2c1)CCC3`: active: 101%.
Take `CCn1c2c(c(=O)n3ncc(C(=O)Nc4ccc(Cl)cc4C)c13)CN(Cc1ccc(OC)cc1)CC2`: the activation was inactive: 13.9%.
The same measure for `Brc1cccc(-c2nnn3c2nc(N2CCCCC2)c2ccccc23)c1`: inactive: 1.74%; for `CCCn1c(=O)c2sccc2n2c(CCCC(=O)NC3CCCCC3)nnc12`: inactive: -6.49%.
The same measure for `Cc1ccc(F)cc1S(=O)(=O)N1CCC(c2nc3ccccc3s2)CC1`: inactive: 4.67%.
Consider `O=C(CNS(=O)(=O)c1cccs1)N1CCN(c2ccccc2F)CC1`, for which the activation is inactive: -7.36%.
With `COc1ccc(C2C=C(c3ccc(Cl)cc3)Nc3nc(NC(=O)CCC(=O)O)nn32)cc1` (centres undefined) the figure was inactive: 20.5%; with `Cc1ccccc1Nc1c(-c2c[nH]c3ccccc23)nc2cccc(C)n12`, active: 63.1%; with `Cc1ccccc1Cn1c(C)c(CNCCCc2ccccc2)c(C(=O)O)c1C`, inactive: 10.6%.
As to `COc1ccc(CCN(C)CCCC(C#N)(c2cc(OC)c(OC)c(OC)c2)C(C)C)cc1OC` (centres undefined), the activation is inactive: -10.7% and inactive: -19.7%.
Take `Cc1ccc(N(Cc2cccs2)C(=O)c2ccccc2[N+](=O)[O-])cc1`: the activation is inactive: -30.4%.
With `Cc1ccc(NC(=O)CCc2nc3cccnc3n2-c2ccccc2)cc1Cl` the figure was inactive: -1.42%; with `COc1ccc(-c2csc3nc(-c4ccc(C)cc4)oc(=O)c23)cc1OC`, inactive: 14.1%.
The same measure for `O=c1c2sc3ccccc3c2n(Cc2ccc(Cl)cc2)c(=O)n1Cc1ccco1`: inactive: -18.4%.
With `O=C(Nc1ccc(F)cc1Cl)c1cnc(N2CCOCC2)c2ccccc12` the figure was inactive: -17.3%.
For `CCC(C)NC(=O)Cn1c(=O)c2cccn2c2ccc(F)cc21` (centres undefined), the activation was inactive: -16.4%.
As to `CCCOc1cccc(C(=O)N2CCCCC2CCN2CCCCC2)c1` (centres undefined), the activation was inactive: -4.49%.
Consider `Cc1ccc(OCc2cc(=O)n3c(-c4ccccc4)csc3n2)cc1`, for which the activation is inactive: 17.8%.
Consider `COc1ccc(C(=O)Nc2nc(-c3nnn(-c4cc(OC)ccc4OC)c3C)ns2)cc1`, for which the activation is inactive: -0.943%.
With `O=C(Cn1nnc(-c2cccc(C(F)(F)F)c2)n1)NCc1ccc(F)cc1` the figure was inactive: 5.68%; with `Cc1c(C(=O)Oc2ccc(Br)cc2)sc2ncn(Cc3ccccc3F)c(=O)c12`, inactive: -10.8%.
The same measure for `Cc1ccc(NC(=O)C(=O)NCC(c2ccc3c(c2)OCO3)N2CCN(C)CC2)cc1C` (centres undefined): inactive: 8.75%.
For `COc1cc(NC(=O)Nc2c[nH]c(=O)[nH]c2=O)cc(OC)c1OC`, the activation was inactive: -12.4%.
With `CC(C)CCNC(=O)Cn1cc(S(=O)(=O)Cc2ccc(F)cc2)c2ccccc21` the figure was inactive: -9.33%.
In the case of `CCN(CC)S(=O)(=O)c1ccc2c(c1)c(=O)c(C(=O)N1CCN(c3ccccc3OC)CC1)cn2C`, the activation is inactive: -5.48%.
As to `O=C(NCCCN1CCN(c2ccccc2F)CC1)c1sc2ncccc2c1-n1cccc1`, the activation is inactive: -8.25%.
With `COc1cccc2cc(-c3nc4ccc(C)cc4[nH]3)c(=O)oc12` the figure was inactive: 12.3%; with `CCCCOc1ccc(S(=O)(=O)n2nc(C)c(S(=O)(=O)N3CCCCCC3)c2C)cc1`, inactive: -6.78%.
With `O=C1CCSC2(C(=O)N(Cc3ccccc3)c3ccccc32)N1c1ccccc1` (centres undefined) the figure was inactive: -36.9%; with `CCCC(=O)OC1=C(C(C)=O)N(Cc2ccccc2)S(=O)(=O)c2ccccc21`, inactive: -6.74%.
The same measure for `CC(=O)N1c2ccc(S(=O)(=O)NCC3CCC(C(=O)Nc4cccc(C)c4)CC3)cc2CC1C` (centres undefined): inactive: 0.525%.
For `Nc1ncnc2c1c(I)cn2[C@@H]1C[C@H](N)[C@@H](O)[C@H]1O`, the activation was inactive: 4.02%.
The same measure for `O=C(CCS(=O)(=O)c1cc2c(cc1Cl)NC(=O)CO2)NCc1ccccc1`: inactive: 6.5%.
For the compound `CCN(Cc1ccccc1)S(=O)(=O)c1ccc(N2CCCCS2(=O)=O)cc1`, the activation is inactive: 24%.
With `CCCCNC(=O)c1cnc2c(-c3ccc(OCC)c(OCC)c3)c(C)nn2c1-c1ccccc1` the figure was inactive: 2.21%; with `CCc1ccc2nc(N3CCC(C(=O)NCCC(C)C)CC3)sc2c1`, inactive: -2.82%.
With `Cc1ccc(C)c(NC(=O)Cn2c(=O)n(CCCS(=O)(=O)C3CCCCC3)c(=O)c3ccccc32)c1` the figure was inactive: -2.63%; with `O=C(Cn1c(-c2cccs2)cc2cc(Cl)ccc21)N1CCCCC1`, inactive: -11.1%.
With `Cc1ccc(NC(=O)C2CCCN(S(=O)(=O)c3ccc4c(c3)CCCC(=O)N4)C2)cc1N(C)C` (centres undefined) the figure was inactive: 18.5%.
Take `COc1ccc(Cl)cc1C(=O)NCC(c1ccc(N(C)C)cc1)N1CCCC1` (centres undefined): the activation is inactive: -3.9%.
With `CN1CCN(c2c(F)cc3c(=O)c(C(=O)O)cn(CCF)c3c2F)CC1` the figure was inactive: -5.48%.
The same measure for `Cc1ccc(-c2ccc(CCC(=O)O)n2-c2ccc(C)c(Cl)c2)cc1`: inactive: 3.24%.
On to `CCOc1cc(C(=O)Nc2ccc(-c3nnc4n3CCCCC4)cc2)cc(OCC)c1OCC`, for which the activation was inactive: 49.6%.
With `Fc1ccc(-c2nnn3c2nc(NCc2ccccc2)c2ccccc23)cc1` the figure was inactive: -8.33%; with `Cc1ccc2nc(/C(C#N)=C/c3ccc(-c4ccc(C(=O)OC(C)C)cc4)o3)[nH]c2c1`, inactive: -12.4%.
The same measure for `Cc1ccc2c(c1)c1c(c(=O)n(-c3ccccc3)c(=O)n1CC(=O)c1ccc(Cl)cc1)n2C`: inactive: -0.358%; for `O=C1CN(C(=O)c2c(F)cccc2Cl)C(c2ccc(F)cc2)c2cc(Br)ccc2N1` (centres undefined): inactive: -31.1%.
With `Cn1c(=O)n(C)c2cc(N3CCOCC3)c(NS(=O)(=O)c3ccc(F)cc3)cc21` the figure was inactive: -25.2%.
Take `CCOc1ccc(NC(=O)CSc2nccn2C2CCCC2)cc1`: the activation was inactive: -18.4%.
With `CN(C(=O)CSc1nc2ccc(NC(=O)c3cccs3)cc2s1)c1ccccc1` the figure was inactive: 13.7%.
With `COc1ccc(-n2c(=O)c3c4c(sc3n(CC(=O)C(C)(C)C)c2=O)CCCC4)c(OC)c1` the figure was inactive: -3.91%.
The same measure for `CCc1ccc(CNC(=O)C2CCN(C(=O)c3ccc(-n4c(C)cc5ccccc54)s3)CC2)cc1`: inactive: -13.9%.
`COC(=O)c1cccc(CN2C(=O)SC(Nc3ccccc3C)C2=O)c1` (centres undefined): the activation is inactive: -84.8%.
The same measure for `Cc1ccc(CN2C(=O)CN(C3CCCCCC3)C(=O)C2c2ccc(F)cc2)cc1` (centres undefined): inactive: -12.6%; for `CC(=O)c1ccc(NC(=O)CSc2nc3c(=O)n(C)c(=O)n(C)c3n2C)cc1`: inactive: -2.9%; for `CCCSc1nnc(NC(=O)Cc2coc3cc(C)ccc23)s1`: inactive: -7.78%.
With `CNC(=O)c1cccc(-n2c(C)nc3cccnc32)c1C` the figure was inactive: -1.99%; with `O=c1c2cccnc2n(Cc2ccc(Cl)cc2)c(=O)n1Cc1ccc(F)cc1`, inactive: -7.92%; with `Cc1cc(N2CCN(C)CC2)nc2ccc(NC(=O)c3ccccc3F)cc12`, inactive: -1.01%.
For `CC(=O)Nc1ccc(S(=O)(=O)N2CCN(c3ccc(C)c(C)c3)CC2)cc1`, the activation was inactive: -0.419%.
The same measure for `Cc1cccc(NC(=O)Nc2ccc(C)c(C)c2)n1`: inactive: 11.1%.
With `O=C(CSc1nnc2[nH]c(=O)cc(-c3ccccc3)n12)Nc1ccccc1C(F)(F)F` the figure was inactive: 8.97%.
Regarding `Cc1cc(OCC(=O)Nc2ccc(C(=O)OC3CCCCC3)cc2)ccc1Cl`, the activation is inactive: 5.39%.
`CCOc1ccc(NC(=O)C(=O)NCCc2sc(-c3ccc(C)cc3)nc2C)cc1`: the activation was inactive: 7.79%.
For the compound `O=C(c1c[nH]c2ccc(S(=O)(=O)Nc3ccccc3F)cc2c1=O)N1CCCCCC1`, the activation is inactive: -6.38%.
For `O=C(/C=C/c1ccc(O)c(O)c1)OCCc1ccccc1`, the activation was inactive: 2.86%.
The same measure for `CNC(=O)C1CCC(Cn2c(=O)c3sccc3n(CC(=O)Nc3cc(C)cc(C)c3)c2=O)CC1` (centres undefined): inactive: 2.86%; for `COc1cccc(NC(=O)Cn2nc(-c3ccncc3)ccc2=O)c1`: inactive: -18.2%.
As for `CC1CCCCN1CCCNC(=O)c1sc2ncccc2c1-n1cccc1` (centres undefined), the activation is inactive: -14.8%.
With `CCC(C)n1c(=N)c(C(=O)NCc2ccco2)cc2c(=O)n3cc(C)ccc3nc21` (centres undefined) the figure was inactive: 8.05%; with `COc1ccc(OC)c(NC(=O)C2CCN(S(=O)(=O)c3c(C)noc3/C=C/c3ccc(C)cc3)CC2)c1`, inactive: 5.74%.
